Reference: PubChem BioAssay (NCATS)
The list shows a part of the results. Further columns of the screen follow, without active or inactive calls. Compounds called inactive in the main read-out are mostly missing here. Words in brackets tell the shape of the fitted curve; partial curves, single points and poor fits give uncertain potencies. Where a SMILES comes first, the peptide text is derived from it. The star is where a group is joined. AMC = Cc1cc(=O)oc2cc(N*)ccc12; Cbz = O=C(OCc1ccccc1)*

The compounds below were run against Nicotinamide N-methyltransferase (Homo sapiens) (UniProt P40261) (assay: Confirmatory Screen for Target Class Profiling of Small Molecule Inhibitors of Methyltransferases (AID 1745852;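 also: inhibitor potency for blocking SAH production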)). Conditions: MTase-Glo luminescence, SAH detection, recombinant enzyme; measured here: NNMT inhibition potency.
Tags tell the direction and shape of the fitted curve.

Chain of UniProt P40261 (P40261 whole entry, looked up): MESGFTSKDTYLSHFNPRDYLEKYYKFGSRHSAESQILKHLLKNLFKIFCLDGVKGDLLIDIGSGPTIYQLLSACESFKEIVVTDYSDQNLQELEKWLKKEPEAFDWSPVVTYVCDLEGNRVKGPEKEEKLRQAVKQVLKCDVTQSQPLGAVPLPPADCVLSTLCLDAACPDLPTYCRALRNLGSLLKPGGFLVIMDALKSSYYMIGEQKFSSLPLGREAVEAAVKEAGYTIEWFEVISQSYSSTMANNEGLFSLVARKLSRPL

Compound | IC50
COc1cccc(CNC(=O)c2sc(=S)n3c2[nH]c(=O)c2cc4c(cc23)OCO4)c1 | 24.1 µM [falling, partial curve]
Cc1nc(NC(=O)C2CC(=O)N(c3n[nH]c4cc(Br)ccc34)C2)sc1C (stereo unspecified) | 1.93 µM [falling, full curve]
COc1ccc(CCN2C(=O)c3cc4oc(C)cc4n3CC2(C)C(=O)NC2CCCCC2)cc1OC (stereo unspecified) | 4.82 µM [falling, full curve]
CC(C)OCCCn1c(=O)c2ccccc2n2c(CCC(=O)N3CCN(c4cccc(Cl)c4)CC3)nnc12 | 21.5 µM [falling, partial curve]
CCN(CC)C(=O)c1ccc(Nc2nc(OCC3CCCCC3)c3[nH]cnc3n2)cc1 | 19.2 µM [falling, partial curve]
Cc1cc(=O)oc2cc(NC(=O)[C@H](CCC(=O)O)NC(=O)[C@H](CC(C)C)NC(=O)[C@H](CC(C)C)NC(=O)OCc3ccccc3)ccc12 (Cbz-Leu-Leu-Glu-{AMC}) | 13.6 µM [falling, partial curve]
CCCCN1C(=O)c2cc(C(=O)NCc3ccc(OC)cc3OC)nn2CC1(C)C(=O)NC1CCCC1 (stereo unspecified) | 21.5 µM [falling, partial curve]
CC(C)Cn1c(=O)c2ccccc2n2c(CCC(=O)N3CCC(Cc4ccccc4)CC3)nnc12 | 19.2 µM [falling, partial curve]
Cc1cnc(C2CC2)n1C1CCN(S(=O)(=O)c2ccc3c(c2)OCCO3)CC1 | 24.1 µM [falling, single point]
Nc1nc(NC2CC2)cc(-c2cccc(Cl)c2Cl)n1 | 21.5 µM [falling, partial curve]
COc1ccccc1N1CCN(c2ncnc3n[nH]c(Br)c23)CC1 | 21.5 µM [falling, partial curve]
CC(C)CCn1c(=O)c2ccccc2n2c(CCC(=O)N3CCN(c4cccc(Cl)c4)CC3)nnc12 | 6.81 µM [falling, full curve]
COc1ccc(CCN2C(=O)c3cc4occc4n3CC2(C)C(=O)NC2CCCCCC2)cc1OC (stereo unspecified) | 17.1 µM [falling, partial curve]
CC(C)Cn1c(=O)c2ccccc2n2c(CCC(=O)N3CCN(Cc4ccccc4)CC3)nnc12 | 21.5 µM [falling, partial curve]
CC1(C)CCC(C)(C)c2cc(C#Cc3ccc(C(=O)O)cc3)ccc21 | 27.1 µM [falling, partial curve]
CC1=CC(=O)[C@@]2(C(C)C)C[C@@H]12 | 24.1 µM [falling, single point]
CCN(CC)CCN(Cc1ccc(-c2ccc(C(F)(F)F)cc2)cc1)C(=O)Cn1c(SCc2ccc(F)cc2)nc(=O)c2c1CCC2 | 15.2 µM [falling, partial curve]
COc1cccc(CN2C(=O)c3nc4ccccc4n3CC2(C)C(=O)NC2CCC(C)CC2)c1 (stereo unspecified) | 21.5 µM [falling, partial curve]
COc1c2c(c(C)c3c1C(=O)OC3)O[C@@]1(C)C[C@@H](OC(C)=O)[C@]34O[C@](OC)(CC[C@]3(C)[C@H]1C2)OC4(C)C | 10.5 µM [falling, partial curve]
CC(C)Cn1c(=O)c2ccccc2n2c(CCC(=O)N3CCN(c4ccccc4)CC3)nnc12 | 21.5 µM [falling, partial curve]
O=C(COCC(=O)N1CCN(C(c2ccccc2)c2ccccc2)CC1)Nc1ccc(Cl)cc1C(=O)O | 21.5 µM [falling, partial curve]
O=[N+]([O-])c1ccc(CNc2nc(NCc3cccc(C(F)(F)F)c3)nc3nc[nH]c23)cc1 | 12.1 µM [falling, partial curve]
CC(C)Cn1c(=O)c2ccccc2n2c(CCC(=O)N3CCN(c4ccc(F)cc4)CC3)nnc12 | 21.5 µM [falling, partial curve]
CC(C)CCn1c(=O)c2ccccc2n2c(CCC(=O)N3CCN(c4ccccc4F)CC3)nnc12 | 19.2 µM [falling, partial curve]
O=S(=O)(Nc1cc(Cl)c(Oc2cnc3ccccc3c2)c(Cl)c1)c1ccc(Cl)cc1Cl | 24.1 µM [falling, partial curve]
Cn1cc2c3c(cccc31)CN(C(=O)c1ccccc1F)CC2 | 17.1 µM [falling, partial curve]
